Measurements taken from PMC13083723 (Patterns, 2026).
Among all 5,400 compounds or so, about 190 (3.5%) showed an effect of 50% or more. Some of the results follow. Non-standard residues stand in square brackets, D forms with d. Residues, ends and D or L forms follow the SMILES beside them. dPhe(4-Cl) = N[C@H](Cc1ccc(Cl)cc1)C(=O)O; d2Nal = N[C@H](Cc1ccc2ccccc2c1)C(=O)O; dCit = NC(=O)NCCC[C@@H](N)C(=O)O; d3Pal = N[C@H](Cc1cccnc1)C(=O)O

The compounds below were run on Vero-E6 (assay: primary screen, phospholipidosis by LipidTOX staining; higher = more effect of the substance). Conditions: 10 µM.
Outline: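 Single-concentration screen at 10 μM, with DMSO 0.1 v/v % and amiodarone 10 μM as controls. Read-out is LipidTOX Red phospholipid staining, which tolerates aldehyde fixation, in Vero-E6 cells.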
`CN(C)c1cccc(Oc2cnc(Nc3cccc(O)c3)nc2)c1` showed a result_ITMP of -4.33%.
In the case of `CC[C@H](C)[C@@H]([C@@H](CC(=O)N1CCC[C@H]1[C@H](OC)[C@@H](C)C(=O)N[C@@H](Cc1ccccc1)c1nccs1)OC)N(C)C(=O)[C@@H](NC(=O)[C@H](C(C)C)N(C)C)C(C)C`, the result_ITMP is reported as 19%.
Work on `Oc1cc(CNC(=S)/C=C/c2cc(O)c(O)c(Br)c2)cc(O)c1O` yielded a result_ITMP of 1.59%.
In the case of `Cn1cc(C2=C(c3ccc(Cl)cc3Cl)C(=O)NC2=O)c2ccccc21`, the result_ITMP is reported as -1.85%.
With `CN1CCN(C(c2ccccc2)c2ccc(Cl)cc2)CC1` (stereo not shown) the result_ITMP was 44.4%.
For `Cc1cccc(Nc2cc(Cl)nc(SCC(=O)O)n2)c1C`, the result_ITMP was -1.65%.
For `CCOc1cc2ncc(C#N)c(Nc3ccc(OCc4ccccn4)c(Cl)c3)c2cc1NC(=O)/C=C/CN(C)C`, the result_ITMP was 0.53%.
In the case of `C[C@H](Cc1ccc2c(c1)OC(C(=O)[O-])(C(=O)[O-])O2)NC[C@H](O)c1cccc(Cl)c1`, the result_ITMP is reported as -2.22%.
Work on `O=C(N/N=C/c1ccc([N+](=O)[O-])o1)c1ccc(O)cc1` yielded a result_ITMP of -0.62%.
`CN(C)C(=S)SSC(=S)N(C)C` showed a result_ITMP of -1.49%.
`CN(Cc1ccccc1)C(=O)[C@H](Cc1ccc2ccccc2c1)NC(=O)[C@@H]1C[C@@H](O)CN1C(=O)c1cn(C)c2ccccc12` gave a result_ITMP of -2.14%.
`CC(C)(C)NCC(O)CSc1nc(-c2ccc(C(N)=O)s2)cs1` (stereo not shown) showed a result_ITMP of -0.68%.
Compound `NC(=O)c1ncn([C@@H]2O[C@H](CO)[C@@H](O)[C@H]2O)c1O` has a result_ITMP of -4.37%.
Compound `Cc1cn([C@@H]2C[C@@H](O)[C@H](CO)O2)c(=O)[nH]c1=O` has a result_ITMP of -4.57%.
With `CC(C)C[C@H](CN)CC(=O)O` the result_ITMP was 7.75%.
`COc1cc([C@@H]2c3cc4c(cc3[C@@H](O[C@@H]3O[C@@H]5CO[C@@H](C)O[C@H]5[C@H](O)[C@H]3O)[C@H]3COC(=O)[C@H]23)OCO4)cc(OC)c1OP(=O)(O)O` showed a result_ITMP of -6.73%.
In the case of `COc1cc2c(cc1NS(=O)(=O)c1ccc(Br)cc1C)n(C)c(=O)n2C`, the result_ITMP is reported as -2.09%.
Work on `CC/C(=C(/CC)c1ccc(OP(=O)(O)O)cc1)c1ccc(OP(=O)(O)O)cc1` yielded a result_ITMP of -7.65%.
`Cc1cc(NC(=O)C(c2ccccc2)N2CCCc3ccccc32)no1` (stereo not shown) gave a result_ITMP of -0.17%.
In the case of `Oc1ccc([C@@H]2Oc3ccc(O)cc3[C@@H]3CCC[C@@H]32)cc1`, the result_ITMP is reported as -1.91%.
`Cc1cc(-c2nc(C(=O)Nc3cn(C4CCOCC4)nc3C(N)=O)co2)ccn1` was tested, and the result_ITMP was -4.19%.
`COc1cccc2c1C(=O)c1c(O)c3c(c(O)c1C2=O)C[C@@](O)(C(=O)CO)C[C@@H]3OC1C[C@H](N2CCO[C@H](OC)C2)C(O)[C@H](C)O1` (stereo partly shown) showed a result_ITMP of 0.2%.
Compound `CC(C)(O/N=C(\C(=O)N[C@@H]1C(=O)N2C(C(=O)[O-])=C(C[n+]3ccccc3)CS[C@H]12)c1csc(N)n1)C(=O)O` has a result_ITMP of -4.47%.
`C[C@@H](O)[C@H](N)C(=O)O` showed a result_ITMP of 2.14%.
With `Clc1cccc(Cl)c1N=C1NCCN1` the result_ITMP was -9.02%.
`CCC[C@H](NC(=O)/C(C#N)=C/c1cccc(Br)n1)c1ccccc1` was tested, and the result_ITMP was -10.4%.
With `NC(=S)N/N=C/c1ccncc1` the result_ITMP was -3.98%.
`COC(=O)c1ccc(N2CCN(C)CC2)c(NC(=O)c2cccc(OC)c2)c1` showed a result_ITMP of 5.57%.
In the case of `OC[C@H]1O[C@@H](OCCc2ccc(O)cc2)[C@H](O)[C@@H](O)[C@@H]1O`, the result_ITMP is reported as -4.23%.
`Cc1cc(/C(=C\Nc2ccc(Cl)cc2)C(=O)Nc2ccc(Cl)cc2)on1` showed a result_ITMP of 1.46%.
Compound `CCCN(CCC)[C@@H]1CCc2c(OC)cccc2[C@@H]1C` has a result_ITMP of 0.14%.
For `C[C@H](CCC(=O)NCCS(=O)(=O)O)[C@H]1CC[C@H]2[C@@H]3[C@H](O)C[C@@H]4C[C@H](O)CC[C@]4(C)[C@H]3C[C@H](O)[C@]12C`, the result_ITMP was -2.23%.
Compound `CC(=O)N[C@H](Cc1ccc2ccccc2c1)C(=O)N[C@H](Cc1ccc(Cl)cc1)C(=O)N[C@H](Cc1cccnc1)C(=O)N[C@@H](CO)C(=O)N[C@@H](Cc1ccc(O)cc1)C(=O)N[C@H](CCCNC(N)=O)C(=O)N[C@@H](CC(C)C)C(=O)N[C@@H](CCCNC(=N)N)C(=O)N1CCC[C@H]1C(=O)N[C@H](C)C(N)=O` (Ac-[d2Nal][dPhe(4-Cl)][d3Pal]SY[dCit]LRP[dA]-NH2) has a result_ITMP of -3%.
Compound `CNCCC=C1c2ccccc2CCc2ccccc21` has a result_ITMP of 64.4%.
In the case of `CC(C)(C)NCC(O)c1ccccc1Cl` (stereo not shown), the result_ITMP is reported as -1.18%.
`CC(C)=CCC/C(C)=C/CNCCNC1C2CC3CC(C2)CC1C3` (stereo not shown) showed a result_ITMP of 29.2%.
In the case of `CCc1c2c(nc3ccc(OC(=O)N4CCC(N5CCCCC5)CC4)cc13)-c1cc3c(c(=O)n1C2)COC(=O)[C@]3(O)CC`, the result_ITMP is reported as -2.58%.
Work on `CSCC[C@H](N)C(=O)O` yielded a result_ITMP of 4.52%.
In the case of `N=C(N)NCCC(=O)O`, the result_ITMP is reported as -4.98%.
In the case of `C[n+]1ccc(C(=O)NCc2ccccc2)cc1`, the result_ITMP is reported as -1%.
Compound `C[C@@H]1C[C@H]2[C@@H]3CCC4=CC(=O)C=C[C@]4(C)[C@@]3(Cl)[C@@H](O)C[C@]2(C)[C@@]1(O)C(=O)CCl` has a result_ITMP of 0.3%.
`COC(=O)C1=C(C)NC(C)=C(C(=O)OC/C=C/c2ccccc2)C1c1cccc([N+](=O)[O-])c1` (stereo not shown) was tested, and the result_ITMP was 5.42%.
Compound `C[C@H](N)C(=O)O` has a result_ITMP of 5.32%.
Work on `C=CC(=O)Nc1cccc(Nc2nc(Nc3ccc(NC4CN(CCF)C4)cc3OC)ncc2C(F)(F)F)c1` yielded a result_ITMP of 19.1%.
`CCn1cc(C(=O)O)c(=O)c2cc(F)c(N3CCNC(C)C3)c(F)c21` (stereo not shown) was tested, and the result_ITMP was -1.13%.
With `CS(=O)(=O)Nc1ccc([N+](=O)[O-])cc1Oc1ccccc1` the result_ITMP was -7.18%.
`COc1cc(C)nc(-n2nc(C)cc2OC)n1` showed a result_ITMP of -2.4%.
`O=C(O)C1=CCNCC1` gave a result_ITMP of -6.34%.
In the case of `CC(C)CN(C[C@@H](O)[C@H](Cc1ccccc1)NC(=O)O[C@H]1CCOC1)S(=O)(=O)c1ccc(N)cc1`, the result_ITMP is reported as 2.75%.
For `CCn1c(=O)[nH]c2ccccc21`, the result_ITMP was -2.45%.
Compound `C#CC1(OCC(O)CN2CCN(c3cccc(C(F)(F)F)c3)CC2)CCCCC1` (stereo not shown) has a result_ITMP of 2.6%.
`COc1cc2nccc(Oc3ccc(NC(=O)Nc4ccc(F)cc4F)c(F)c3)c2cc1OC` gave a result_ITMP of -1.97%.
`CN1CCN(C2=Nc3ccccc3Sc3ccc(Cl)cc32)CC1` showed a result_ITMP of 26.7%.
Compound `CNC(=O)c1ccc2c(c1)CCO[C@H]2CCN1CCN(c2ccc(C(N)=O)cc2)CC1` has a result_ITMP of -6.24%.
`CC(=O)OC[C@H]1O[C@@H](n2ccc(=O)[nH]c2=O)[C@H](OC(C)=O)[C@@H]1OC(C)=O` was tested, and the result_ITMP was 1.47%.
In the case of `Cc1cc(C(=O)CN2CCCC2)c(C)n1-c1ccc(F)cc1`, the result_ITMP is reported as 2.92%.
Compound `CCOC(=O)CCC(=O)O[C@H]1[C@H](O[C@@H]2[C@@H](C)[C@H](O[C@H]3C[C@@](C)(OC)[C@@H](O)[C@H](C)O3)[C@@H](C)C(=O)O[C@H](CC)[C@@](C)(O)[C@H](O)[C@@H](C)C(=O)[C@H](C)C[C@@]2(C)O)O[C@H](C)C[C@@H]1N(C)C` has a result_ITMP of -1.35%.
`COc1cc(NC(=O)c2ccc(-c3ccc(Cl)cc3)o2)cc(OC)c1` was tested, and the result_ITMP was 2.29%.
`Nc1ncnc2nc(-c3ccc(N4CCOCC4)nc3)cc(-c3cccc(Br)c3)c12` showed a result_ITMP of 0.46%.
`N#Cc1ccc(Cn2cncc2CN2CCN(c3cccc(Cl)c3)C(=O)C2)cc1` gave a result_ITMP of -0.37%.
Work on `c1ccc2c(Oc3nc(Nc4ccc(N5CCOCC5)cc4)c4ncn(C5CCCCC5)c4n3)cccc2c1` yielded a result_ITMP of -11.2%.
With `O=C(O)C(F)(F)C(F)(F)C(F)(F)C(F)(F)C(F)(F)C(F)(F)C(F)(F)F` the result_ITMP was -0.24%.
`FC(F)(F)c1cc(CO[C@H]2CCCN[C@H]2c2ccccc2)cc(C(F)(F)F)c1` showed a result_ITMP of 40.1%.
Compound `O=[N+]([O-])c1cc(Cl)ccc1S(=O)(=O)c1ccccc1` has a result_ITMP of -9.73%.
Compound `CCOC(=O)c1c(C)[nH]c2ccc3c(c12)CN1CCc2cc(OC)ccc2C1O3` (stereo not shown) has a result_ITMP of 7.25%.
With `Cc1nnc2ccc(-c3cccc(C(F)(F)F)c3)nn12` the result_ITMP was -4.68%.
`COc1cc(N)cn[n+]1-c1ccccc1` showed a result_ITMP of -12.9%.
Compound `CC(C)(O)c1ccn2c(-c3ccc(F)c(-c4ccc(F)cc4C#N)c3)cnc2c1F` has a result_ITMP of 0.44%.
For `CC12CCC(C(Br)C1=O)C2(C)C` (stereo not shown), the result_ITMP was -3.49%.
`O=C(O)c1cc(Oc2ccc([N+](=O)[O-])cc2)cc(Oc2ccc([N+](=O)[O-])cc2)c1` was tested, and the result_ITMP was -1.17%.
For `C[C@@H]1CN(c2c(F)c(N)c3c(=O)c(C(=O)O)cn(C4CC4)c3c2F)C[C@H](C)N1`, the result_ITMP was 6.29%.
For `O=c1n(CC2CO2)c(=O)n(CC2CO2)c(=O)n1CC1CO1` (stereo not shown), the result_ITMP was -7.71%.
Compound `C[C@@H]1O[C@@H]1P(=O)(O)O` has a result_ITMP of -3.28%.
`Cc1c(F)cccc1NC(=O)Nc1ccc(Cl)c(S(=O)(=O)[C@H]2CCCNC2)c1O` gave a result_ITMP of -2.27%.
Compound `COc1ccc2c(c1)CN(C)CC2c1ccc(Cl)c(Cl)c1` (stereo not shown) has a result_ITMP of 12.7%.
In the case of `Nc1nc2c(c(N3CCNCC3)n1)CCC1=C2[C@@H]2CCCC[C@@H]2O1`, the result_ITMP is reported as 70.7%.
`CCCCCCCCCCC(C)(C)C(=O)Nc1c(OC)cc(OC)cc1OC` showed a result_ITMP of 0.67%.
`C[C@@H](O)[C@H]1C(=O)N2C(C(=O)[O-])=C([C@H]3CCCO3)S[C@H]12` was tested, and the result_ITMP was -1.64%.
Work on `CCOc1nc2cccc(C(=O)O)c2n1Cc1ccc(-c2ccccc2-c2nc(=O)o[nH]2)cc1` yielded a result_ITMP of -0.57%.
With `CCn1cc(C(=O)O)c(=O)c2cc(F)c(N3CCN(C)CC3)cc21` the result_ITMP was 5.73%.
`O=c1ccn([C@@H]2O[C@H](COP(=O)([O-])OP(=O)([O-])OP(=O)([O-])O)C(O)C2O)c(=O)[nH]1` (stereo partly shown) showed a result_ITMP of 0.02%.
With `CC[C@]12CCCN3CCc4c(n(c5ccccc45)C(=O)C1)[C@@H]32` the result_ITMP was -3.26%.
